The series deals with ATP. The experiment in a line: switch fluorescence ratio, 500 uM ATP over buffer (Cy3 cluster intensity, sum of 5 cycles each) (fold (ratio)); higher = stronger signal-on switching upon ATP binding; sequences stand for … in TCGTCGGCAGCGTCAGATGTGTATAAGAGACAGTTTTTTTTTTTTTTTTTTTTTTTTT…TC. The following applies: aptamer strand: ATP DNA aptamer (quencher-CACCTGGGGGAGTATTGCGGAGGAAGG + anchor), 100 nM annealed; ATP concentration: 500 uM; one replicate. In a few lines:
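The fluorescence ratio divides summed target-cycle Cy3 intensity by summed buffer-cycle Cy3 intensity for each cluster and is averaged per switch-domain sequence. Cy3-labelled switching-strand clusters on a modified Illumina MiSeq flow-cell were annealed to 100 nM quencher-labelled ATP aptamer, then imaged in selection buffer and again after 15 min with 500 uM ATP at 22 °C. Five such cycles were run, with NaOH stripping and re-annealing between them, and clusters outside 100-1000 RFU were excluded.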

Values marked as one replicate rest on one cluster of the flow cell; about a third of the high ones do not repeat.
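Further: ATP exposure 15 min at 22 °C before imaging.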

For CGCTACCGGC, the switch fluorescence ratio is 1.05.

Regarding CGAGGTCGGA, the switch fluorescence ratio stood at 1.03.

Regarding ACTGTGAGGT, the switch fluorescence ratio was 0.996.

As for TGCGGTACCG, the switch fluorescence ratio came to 1.

Consider GGGCAAATTT, for which the switch fluorescence ratio came out at 1.02.

For the sequence GAGGAGTCCT, the switch fluorescence ratio was found to be 1.

Take GGATAGACAA: the switch fluorescence ratio was 0.987.

In the case of ATCGTAGCAG, the switch fluorescence ratio was 1.01.

On to TTTAGATAG, for which the switch fluorescence ratio turned out to be 1.04.

Take ATAACGCATA: the switch fluorescence ratio worked out at 1.63.

ATCGTTGGGT: the switch fluorescence ratio was 0.983.

In the case of CCTTAGAGGG, the switch fluorescence ratio turned out to be 0.993.

As for AACCTGTGTC, the switch fluorescence ratio came to 1.05.

Take TTGCAATAGC: the switch fluorescence ratio is 1.74.

CGCGTTATCT: the switch fluorescence ratio is 1.01.

On to GAGCCAATCG, for which the switch fluorescence ratio came out at 1.06.

As for AGAAATGAAG, the switch fluorescence ratio amounted to 0.974.

With CTTCGTGCCC, the switch fluorescence ratio was determined as 1.24.

Take AATAAGTAAC: the switch fluorescence ratio is 1.15.

As to GTAGTTAGAT, the switch fluorescence ratio came out at 0.991.

TCTTACTAAA: the switch fluorescence ratio was found to be 1.05.

As to CGGATATTGA, the switch fluorescence ratio amounted to 1.02.

Take AAGCGTTCTG: the switch fluorescence ratio was found to be 0.997.

On to GGGTACGATG, for which the switch fluorescence ratio was 1.03.

Consider TTCTTGGCAG, for which the switch fluorescence ratio worked out at 0.994.

For CGGGTGTTTC, the switch fluorescence ratio amounted to 0.993.

Turning to TTTGTATGCC, the switch fluorescence ratio turned out to be 1.01.

CGACGCAGGG: the switch fluorescence ratio was determined as 5.24.

As for TTACAGACCC, the switch fluorescence ratio was found to be 1.14.

As for AAACTGAGTC, the switch fluorescence ratio came to 0.975.

Regarding TGTGCGTGGG, the switch fluorescence ratio is 1.01.

On to GTAGCTGGCG, for which the switch fluorescence ratio amounted to 1.06.

As for ACGCGAGAGG, the switch fluorescence ratio turned out to be 0.998.

For the sequence CTAATAAGGC, the switch fluorescence ratio is 1.05.

Take GGGAACGTGG: the switch fluorescence ratio worked out at 1.26.

On to TACTATAACC, for which the switch fluorescence ratio came to 1.09.

For GACGATGTGT, the switch fluorescence ratio came to 0.992.

In the case of GTTCGGTGCG, the switch fluorescence ratio was 0.987.

With TTCGGCTTTG, the switch fluorescence ratio amounted to 1.03.

Consider TGGATAAGCA, for which the switch fluorescence ratio is 0.993.

Take ATATTGGGAA: the switch fluorescence ratio amounted to 0.985.

Take AGGTTCTTTA: the switch fluorescence ratio worked out at 0.983.

For the sequence CATTTAACTG, the switch fluorescence ratio amounted to 1.01.

Consider GTGGACTAGG, for which the switch fluorescence ratio was 1.03.

As for AAATCGACGC, the switch fluorescence ratio worked out at 1.51.

In the case of AGTGCTGTGG, the switch fluorescence ratio was 0.948.

For CTGTTAAGAT, the switch fluorescence ratio was determined as 0.973.

Turning to GCTCGGCGGA, the switch fluorescence ratio was 0.991.

On to TGTCAGGCGA, for which the switch fluorescence ratio is 1.05.

As to GGAGAACGGG, the switch fluorescence ratio came out at 0.977.

On to AGAATTTCGT, for which the switch fluorescence ratio was 1.01.

As for AGGATGGAAC, the switch fluorescence ratio was 0.994.

Regarding TCGAGATCGT, the switch fluorescence ratio came out at 0.954.

Take TTGAGTCAGC: the switch fluorescence ratio came out at 1.03.

AAGCCGGTAT: the switch fluorescence ratio worked out at 0.976.

In the case of ATGACGTT, the switch fluorescence ratio was 1.02.

Turning to CAGTCGTTAT, the switch fluorescence ratio was 0.994.

As for AGGTCCGCAT, the switch fluorescence ratio was found to be 3.4.

TCGTTGGCT: the switch fluorescence ratio amounted to 0.919.

On to CGGATGGGAG, for which the switch fluorescence ratio came out at 1.

Regarding CCAGTTAGAT, the switch fluorescence ratio is 0.966.

With TTCTGAGTGT, the switch fluorescence ratio came to 0.972.

For the sequence TGAATGAGAG, the switch fluorescence ratio amounted to 1.06.

Turning to CACAAGGGTG, the switch fluorescence ratio was determined as 1.2.

In the case of TCACTATCCA, the switch fluorescence ratio turned out to be 0.987.

Regarding CGAATGGTGC, the switch fluorescence ratio amounted to 1.04.

As to CGATTTGAAG, the switch fluorescence ratio is 1.04.

The record behind these values is the supplement of paper PMC10126150.
